Test results as given in US20110257242A1, “3-PHENYL-3-METHOXYPYRROLIDINE DERIVATIVES AS MODULATORS OF CORTICAL CATECHOLAMINERGIC NEUROTRANSMISSION” (NSAB, FILIAL AF NEUROSEARCH SWEDEN AB, SVERIGE, priority 2008, published 2011).

Tested on: MK-801 pre-treated rats
Experiment: Locomotor activity in MK-801 pre-treated rats (antipsychotic activity model)
Settings: rats pre-treated with MK-801 0.7 mg/kg i.p. 90 minutes before test compound; test compound 100 μmol/kg; recorded between 30 and 60 minutes after administration

CCCN1CCC(OC)(c2cccc(F)c2F)C1 (single isomer, unassigned) [Example 4, 3-(2,3-Difluorophenyl)-3-Methoxy-1-Propylpyrrolidine]
Locomotor activity, MK + example: 10938 counts/30 min
